Z-score data for 110 compounds are collected here from PubChem BioAssay AID488969 (Vanderbilt High Throughput Screening Facility, 2010).

Over roughly 110,000 compounds, “z-score” has its median near -0.1; the highest 2% begin near 2. The list shows a part of the results. Active and inactive are the calls of the source.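 Rule for the calls: active = z-score in the third read window above 3 or below -3; inactive = the rest.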

The target of this experiment is Metabotropic glutamate receptor 8 (Rattus norvegicus) (UniProt P70579). The experiment can be described thus: mGluR8 Gi/Go-coupled signaling modulation – cell-based, rat, thallium flux, HTS, primary screen (AID 488969). The following applies: HEK293 rat mGluR8, GIRK (G protein-gated inwardly rectifying potassium channel) thallium flux, FluoZin2; at 10 µM; stronger effect = higher value; submaximal glutamate (EC20) added with thallium.
Sequence of UniProt P70579 (P70579 whole entry, looked up): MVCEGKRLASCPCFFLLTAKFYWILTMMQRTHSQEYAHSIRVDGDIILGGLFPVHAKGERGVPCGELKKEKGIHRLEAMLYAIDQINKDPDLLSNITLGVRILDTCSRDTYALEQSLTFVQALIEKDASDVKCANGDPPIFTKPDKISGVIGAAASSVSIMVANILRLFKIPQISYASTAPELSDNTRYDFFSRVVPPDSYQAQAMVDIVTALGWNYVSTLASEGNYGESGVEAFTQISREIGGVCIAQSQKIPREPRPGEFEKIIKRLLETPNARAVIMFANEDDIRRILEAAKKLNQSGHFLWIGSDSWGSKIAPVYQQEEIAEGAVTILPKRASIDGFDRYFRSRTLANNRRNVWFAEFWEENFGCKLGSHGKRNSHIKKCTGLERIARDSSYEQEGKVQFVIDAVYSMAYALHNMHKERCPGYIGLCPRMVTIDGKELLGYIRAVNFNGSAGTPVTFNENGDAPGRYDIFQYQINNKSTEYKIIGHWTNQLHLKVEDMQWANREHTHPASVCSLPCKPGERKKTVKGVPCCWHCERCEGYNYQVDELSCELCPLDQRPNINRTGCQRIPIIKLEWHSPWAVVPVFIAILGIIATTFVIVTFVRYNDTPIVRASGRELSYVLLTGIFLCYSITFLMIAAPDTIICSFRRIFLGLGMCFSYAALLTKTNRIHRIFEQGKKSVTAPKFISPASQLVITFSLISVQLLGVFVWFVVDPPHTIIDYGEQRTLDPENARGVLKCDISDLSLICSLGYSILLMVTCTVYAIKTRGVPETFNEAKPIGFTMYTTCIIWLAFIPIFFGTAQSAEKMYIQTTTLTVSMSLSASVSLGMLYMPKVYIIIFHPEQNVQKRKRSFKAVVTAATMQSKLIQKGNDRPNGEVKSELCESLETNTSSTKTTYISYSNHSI
Compound `CC(=O)NC(CC(=O)Nc1ccc(S(=O)(=O)N2CCCC2)cc1)c1ccccc1` (stereo not given) had a z-score of 0.201.
For `O=[N+]([O-])c1cccc(C(=Nc2cccc(Cl)c2)NO)c1`, the z-score was -0.172.
For `Cc1ccc(-c2nc(NCc3cccnc3)c3ccccc3n2)cc1` the value was -0.131.
For `Cc1cc(C)nc(SC(C(=O)O)c2ccccc2)n1` (stereo not given) the value was -0.17; for `CC1CC(C)(C)CC2(C1)NC(=O)N(CC(=O)NCCc1c[nH]c3ccccc13)C2=O` (stereo not given), -0.065; for `Cc1ccc(S(=O)(=O)NNC(=O)c2ccccc2O)cc1`, -0.0886.
In the case of `O=C(NCc1nnc(SCC(=O)N2CCCCCC2)o1)c1ccco1` it was -0.474.
The compound `COC(=O)c1[nH]c2cccc(OC)c2c1NC(=O)CCN1CCN(c2cccc(Cl)c2)CC1` returned a z-score of 0.225.
For `COc1ccc([C@@H]2Sc3cc(OC)ccc3N(CCN(C(C)C)C(C)C)C(=O)[C@H]2OC(C)=O)cc1` the value was 2.62; for `Cc1cc(C)nc(Nc2nc(=O)c3ccccc3s2)n1`, 1.6; for `O=C(Oc1ccc2c(c1)OCO2)c1cc2c(s1)CCC2`, 0.0193.
In the case of `COc1ccc(N(CC(=O)NC2CCCC2)C(=O)c2csnn2)cc1` it was 0.193; in that of `Cc1ccc(CNc2ncc(-c3ccc4c(c3)OCO4)n2C)cc1`, 0.219; in that of `COc1ccc(-c2csc(C3=C(O)CN(Cc4ccc(Cl)cc4)C3=N)n2)cc1OC`, -0.508.
For `CCOCCSc1nnc2nc(C)cc(C)n12` the value was 0.142; for `COC(=O)C1=C(C)N(CCC2=CCCCC2)C(=O)C1`, 0.161; for `Cc1ccc(/C=C/C(=O)Nc2ccc([N+](=O)[O-])cc2)o1`, -0.17.
Consider `Cc1ccccc1/C=N/NC(=O)Cn1cnc([N+](=O)[O-])n1`, for which the z-score was -0.0421.
In turn, `O=S(=O)(c1ccc(S(=O)(=O)N2CCN(C/C=C/c3ccccc3)CC2)cc1)N1CCCC1` showed a z-score of -0.122.
In the case of `Cc1ccc(NC(CNS(=O)(=O)c2ccc(Cl)cc2)c2ccccc2)cc1` (stereo not given) it was -0.0374; in that of `COC(=O)Cc1nc2ccccc2[nH]1`, 0.229; in that of `Cc1ccc(-c2nnn(CC(=O)N(CC(=O)NC3CCCC3)c3ccc(F)c(Cl)c3)n2)o1`, 0.164.
In the case of `CCSc1nc2c(c(=O)n1Cc1ccccc1)SC(C)C2` (stereo not given) it was -1.74; in that of `CCCOc1ccc(C2C(=O)N(C3CCCCC3)CC(=O)N2CCCOCC)cc1OC` (stereo not given), 0.34; in that of `Cn1nnc2cc(C(=O)N3CCSCC3)ccc21`, -0.279.
In the case of `CCN1CCN(C(c2ccccc2)c2nnnn2CCc2ccc(OC)c(OC)c2)CC1` (stereo not given) it was 0.256; in that of `S=c1nc(C2CC2)[nH]c2ccccc12`, active: 9.36; in that of `COc1ccccc1-c1nc(C#N)c(N2CCN(c3cccc(Cl)c3)CC2)o1`, -0.988.
`CC1CCN(CC(=O)N2c3ccccc3CCc3ccccc32)CC1` yielded a z-score of 0.174.
In the case of `Cc1cc(Br)cc2c1NC(=O)C2(c1c(C)n(C)n(-c2ccccc2)c1=O)c1c(C)n(C)n(-c2ccccc2)c1=O` it was -0.413.
In the case of `N#CCCN(CCC#N)C(=O)c1ccc(Cl)cc1` it was 0.32.
For `CC(C)CSc1nc2c(=O)[nH][nH]c(=O)c2n1Cc1ccccc1` the value was -1.71; for `Cn1c(NCCCO)nc2ccccc21`, -1.34.
As to `CCCCCCC(=O)Nc1nc(C)c(-c2csc(Nc3cc(OC)ccc3OC)n2)s1`, the z-score worked out at 0.11.
On to `N/C(=N\OC(=O)Cc1ccc(-c2ccccc2)cc1)c1cccnc1`, for which the z-score is -0.00729.
In the case of `CCCCSc1nnc(-c2ccccc2N)c(=O)[nH]1` it was -0.948; in that of `CCN(CC)S(=O)(=O)c1ccc(C(=O)Oc2ccc3c(c2)OCO3)cc1`, -0.26; in that of `CC(C)NC(=O)C(=O)NCCN1CCN(S(=O)(=O)c2ccc(Cl)cc2)CC1`, -0.0595.
Regarding `CC(C)c1ccccc1NC(=O)COC(=O)c1c2c(nc3ccccc13)CCN(Cc1ccccc1)C2`, the z-score was determined as 0.105.
The compound `CC1(C)Cc2ccccc2-c2nnc(-c3cccnc3)n21` had a z-score of 0.241.
For `Cc1ccc(CNC(=O)c2ccc(Br)o2)cc1` the value was 0.0302; for `CC(=O)NN1C(=O)c2ccccc2NC1c1ccccn1` (stereo not given), -0.25.
For `CCOC(=O)CSc1nc2ccccc2n1CC(=O)NC(C)(C)C` the value was 1.48; for `Cn1c(CN2CCCCC2)nc2cc(NC(=O)c3ccc(Cl)cc3)ccc21`, -0.288; for `c1cc2c(cc1-c1cnc3n1CCC3)OCCO2`, -0.449.
For `COC(=O)c1c(-c2ccc(C(C)(C)C)cc2)csc1NC(=O)C1C2CCC(O2)C1C(=O)O` (stereo not given) the value was -0.268.
For the compound `Cc1ccc(-n2c(C)cc(C3N=C(N)Nc4nc5ccccc5n43)c2C)c(C)c1` (stereo not given), the z-score was -0.207.
For `Cc1nn(-c2ccccc2)c2sc(C(=O)N3CCCCC3)cc12` the value was 0.23; for `COc1cc2oc3ccccc3c2cc1N(CC(=O)N(C)C)S(=O)(=O)c1ccc(C)cc1`, -0.642; for `O=C(NCc1ccccn1)C1CCCN(S(=O)(=O)c2ccccc2)C1` (stereo not given), -0.251.
`COc1ccccc1COC(=O)Nc1c(C)nn(C)c1Cl` gave a z-score of -0.0526.
`COc1ccccc1-n1c(CCn2nc(C)c(Br)c2C)n[nH]c1=S`: the z-score is -0.472.
`NC(=O)C1(NC(=O)[C@@H]2CC3(CC(c4cccc(NC(=O)[C@@H]5CCC(=O)N5)c4)=NO3)CN2C(=O)Cc2ccc(Cl)cc2)CC1` (stereo not given in full) gave a z-score of 0.0125.
In the case of `CCOc1ccc(=O)n(-c2ccccc2)n1` it was 0.497.
Compound `CCCc1nnc(NC(=O)CN2CCOCC2)s1` yielded a z-score of 0.202.
For `Cc1ccc(-c2nc(N3CCOCC3)sc2C(=O)N2CCOCC2)cc1` the value was -0.276; for `CC(C)COP(=O)(OCC(C)C)C(O)c1ccccc1F` (stereo not given), -0.0331; for `CC(/C=N/NC(=O)c1cc(-c2cccs2)[nH]n1)=C\c1ccccc1`, -0.431.
For `O=C(CCN1C(=O)S/C(=C\c2ccccc2)C1=O)N1CCOCC1` the value was 0.337; for `CC(C)c1ccc(N(C(=O)c2cc3ccccc3oc2=O)C2C=CS(=O)(=O)C2)cc1` (stereo not given), -0.191; for `Nc1cc(N)c(OCC(F)(F)F)cc1OCC(F)(F)F`, -0.00384.
For `O=C(CCN1C(=O)c2ccccc2C1=O)N1CCC(c2ccccc2)C1` (stereo not given) the value was 0.282.
`O=C(NCc1ccccc1)c1ccc(Oc2ccc(C(=O)NCc3ccccc3)cc2)cc1`: the z-score came to 0.287.
For the compound `COc1cc(C(=O)Nc2nc3ccccc3s2)ccc1OCc1c(C)noc1C`, the z-score was -0.121.
In the case of `COc1ccc(NS(=O)(=O)c2coc(C(N)=O)c2)cc1Cl` it was 0.283; in that of `O=c1cc(-c2ccccc2)[nH]c2ccccc12`, -0.912.
For the compound `CCn1c(-c2ccc(OC)c(OC)c2)n[nH]c1=S`, the z-score was 0.0812.
For `COc1ccccc1Oc1nc2c(c(=O)n(Cc3ccccc3F)c(=O)n2C)n1C` the value was -0.585.
In the case of `COc1ccc(-c2[nH]ncc2/C=C(/C#N)C(=O)NC2CCCCCC2)cc1` it was -0.264.
In the case of `Cc1ccc2c(c1)C(=O)N(CCCCO)C2=O` it was -0.0574.
`COCCn1c(COc2ccc(Cl)cc2)nnc1SCC(N)=O`: the z-score came out at 0.434.
In the case of `O=C(OCC(=O)c1ccc[nH]1)c1ccc(S(=O)(=O)N2CCCCC2)cc1` it was 0.0988; in that of `CC(C)c1nnc(SCC(=O)N2CCc3ccccc32)n1C`, 0.469.
In the case of `CCN(CC)CCCNC(=S)N(Cc1ccco1)Cc1cc2cc3c(cc2[nH]c1=O)OCCO3` it was -0.0165; in that of `COc1ccc(CN(CCC#N)C(=S)NC(=O)c2ccccc2)cc1`, active: 4.49; in that of `O=C(Nc1nc(-c2ccc(Cl)cc2)cs1)c1cccnc1`, -0.375.
In the case of `CN=Cc1cc(-c2ccccc2)sc1O` it was 0.0198; in that of `CO/N=C/c1cc([N+](=O)[O-])ccc1Sc1ccc(C)cc1`, 0.195.
On to `O=C(COc1ccccc1F)Nc1nnc(-c2ccncc2)s1`, for which the z-score was -0.00228.
In the case of `O=C(COC(=O)c1ccc(S(=O)(=O)NCc2ccco2)cc1)NCC1CCCCC1` it was 0.0929; in that of `COc1ccc2oc(=O)c(C(=O)N3CCCc4ccccc43)cc2c1`, -0.203; in that of `COC(=O)[C@H](CCSC)NC(=O)NCc1cccs1`, -0.717.
In the case of `COCCN1C(=O)C(=O)/C(=C(/O)c2ccc3c(c2)OCCO3)C1c1ccc(C(=O)OC)cc1` (stereo not given) it was 0.269; in that of `COc1ccc(C)cc1N(C)C(=O)c1coc(=O)c2ccccc12`, -0.0905.
For `Cc1cc(C(=O)COC(=O)CNC(=O)c2ccc(F)cc2)c(C)n1Cc1ccco1` the value was -0.438; for `Cc1cc(C(=O)COC(=O)c2ccc3c(c2)OCO3)c(C)n1Cc1cccs1`, -0.202.
`COc1ccc(CSc2nnnn2-c2ccccc2)cc1` displayed a z-score of -0.555.
For `CC1CN(C(=O)c2cc3c(s2)CCC3)CC(C)O1` (stereo not given) the value was 0.0626; for `COc1ccc(S(=O)(=O)NCCCCNS(=O)(=O)c2ccc(OC)cc2)cc1`, -0.0286; for `CCCCCCSc1nc(O)c(C2OC(=O)c3c2ccc(OC)c3OC)c(=O)n1CC` (stereo not given), 1.04.
For `Cc1nc2ncnn2c(C)c1Cc1ccccc1Cl` the value was -0.0847.
As to `O=C(Nc1ccon1)c1sc2ccccc2c1Cl`, the z-score is 0.0961.
For `CCOC(=O)Cc1csc(NC(=S)NC(=O)c2ccccc2C)n1` the value was active: 9.08; for `COc1ccc(NC(=O)c2ccc(S(=O)(=O)N3CCOCC3)cc2)c(OC)c1`, -0.369.
For `Cc1ccccc1CN(c1ccc(C(=O)N2CCc3ccccc3C2)cc1)S(C)(=O)=O` the value was -0.175; for `O=C(c1cc(-c2cccs2)on1)N1CCN(c2ccc(F)cc2)CC1`, -0.974; for `CCOc1cc(C(=O)Nc2ccc(F)cc2)cc(Br)c1OC`, -0.0681.
For `COc1cc(OC)cc(OCC(O)Cn2cnc3cc(C)c(C)cc32)c1` (stereo not given), the z-score is -0.275.
In the case of `CCOC(=O)c1c(C)[nH]c(C(=O)OCC(=O)N(C)C2CCS(=O)(=O)C2)c1C` (stereo not given) it was 0.131; in that of `CCN(CC)CCn1c(NCc2cc(OC)ccc2OC)nc2ccccc21`, 0.342; in that of `CCN1CCN(/C=N/c2nc(C)cs2)CC1`, 0.384.
In the case of `Cn1c(=O)c2cc(S(=O)(=O)Nc3ccc4c(c3)OCO4)ccc2n(C)c1=O` it was 0.257; in that of `C=CCCC(=O)Nc1nc(C)c(-c2csc(Nc3cc(OC)ccc3OC)n2)s1`, -0.191; in that of `O=C(CCCn1c(=S)[nH]c2cc3c(cc2c1=O)OCO3)N1CCc2ccccc2C1`, 0.596.
For `Cc1cccc(C)c1N(CC(=O)NN=C1CCCCCC1)S(C)(=O)=O` the value was -0.129; for `CCC(=O)Nc1ccc(C(=O)Nc2cc(C)on2)cc1`, -0.13.
Regarding `COC(=O)COc1ccc2c(-c3cccc([N+](=O)[O-])c3)cc(=O)oc2c1`, the z-score is -0.448.
For `CCCCCCCC(=O)Nc1ccc(C(=O)N/N=C/c2cccc([N+](=O)[O-])c2)cc1` the value was -0.161; for `N#CCC(=O)N1CCn2c1nc1ccccc12`, 0.13.
For `COc1ccccc1NC(=O)C1CCCN(S(=O)(=O)c2cccc3nsnc23)C1` (stereo not given) the value was 0.0406.
